± gives the uncertainty stated by the source. Shown are siRNA guide strands that differ only in the seed, positions 2 to 7.
Columns and labels:
[1] = tested on: M565; assay: cell viability relative to lipid-only control; higher = less toxic; details: concentration: 10 nM; 96 h; Mus musculus
[2] = tested on: H460; assay: as above; details: concentration: 10 nM; 96 h; Homo sapiens
[3] = tested on: HeyA8; assay: as above; details: concentration: 10 nM; 96 h; Homo sapiens
[4] = tested on: 3LL; assay: cell viability relative to siNT1 control; HeyA8 human ovarian and H460 human lung cancer; M565 mouse liver and 3LL mouse lung cancer; siNT1 is a non-toxic control siRNA; higher = less toxic; details: concentration: 10 nM; 96 h; Mus musculus;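 also: Luminescence-based viability of cells reverse transfected in 384-well plates with lipid-complexed siRNAs built on a non-toxic 19mer backbone whose passenger strand carries 2′-O-methyl groups at positions 1 and 2, triplicates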
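For cell viability relative to lipid-only control in this document: reverse lipid transfection in 384-well plates, in triplicate, of duplexes on a non-toxic 19mer backbone with passenger strand 2′-O-methylated at positions 1 and 2, luminescence viability read-out.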

Sequence | cell viability [1] | cell viability [2] | cell viability [3] | cell viability [4]
UUGGGUAACAUGUAAACCAAA | 74.7 ± 13% | 54.9 ± 7.9% | 69.8 ± 2% | 33.2 ± 3.7%
UACCUCCACAUGUAAACCAAA | 8.85 ± 2.4% | 35.1 ± 3.7% | 51.9 ± 6.5% | 11.2 ± 5.8%
UAAUUUAACAUGUAAACCAAA | 98 ± 20% | 94.3 ± 4.2% | 102 ± 13% | 118 ± 5.8%
UGGCCCGACAUGUAAACCAAA | 34.3 ± 3.3% | 47.3 ± 5.7% | 45 ± 3.8% | 44 ± 1.2%
UUCAUUCACAUGUAAACCAAA | 40 ± 7.9% | 61.6 ± 5% | 70.9 ± 2.6% | 80.4 ± 10%
UGAUGCGACAUGUAAACCAAA | 27 ± 6.1% | 54.2 ± 8.3% | 51.9 ± 3.6% | 24.2 ± 4.8%
UGCUUUAACAUGUAAACCAAA | 62.5 ± 8.4% | 85.8 ± 20% | 65.7 ± 4.6% | 77.4 ± 15%
UCGAUGGACAUGUAAACCAAA | 39.1 ± 3.5% | 58.3 ± 4% | 65.7 ± 6.8% | 83.4 ± 16%
UCACGUAACAUGUAAACCAAA | 69.9 ± 10% | 40.5 ± 11% | 84.7 ± 2.5% | 99.4 ± 12%
UCGAUGUACAUGUAAACCAAA | 54.7 ± 7.4% | 72.1 ± 7.1% | 60 ± 2.1% | 82.1 ± 17%
UGAGUUAACAUGUAAACCAAA | 42.3 ± 5.2% | 85.3 ± 21% | 79.6 ± 6% | 95.2 ± 17%
UUGGGACACAUGUAAACCAAA | 19.5 ± 1.8% | 64.4 ± 4.3% | 47.1 ± 7.1% | 29.4 ± 9.5%
UAAUCGGACAUGUAAACCAAA | 77.6 ± 7.2% | 82 ± 20% | 91 ± 7.3% | 85.9 ± 2.4%
UGGGUGAACAUGUAAACCAAA | 25.7 ± 1.6% | 9.51 ± 1.1% | 3.12 ± 0.19% | 47.9 ± 5.3%
UCUUUUUACAUGUAAACCAAA | 81.2 ± 7.7% | 57 ± 6.4% | 73.3 ± 4.9% | 85.2 ± 9.8%
UUCUGCCACAUGUAAACCAAA | 3.26 ± 1.4% | 22.5 ± 0.24% | 17.6 ± 1% | 1.94 ± 1.2%
UUGCCCAACAUGUAAACCAAA | 81.2 ± 11% | 79 ± 6.8% | 88.2 ± 5.2% | 40.9 ± 8.1%
UCGAUACACAUGUAAACCAAA | 74.5 ± 8.5% | 96.8 ± 5.8% | 83.3 ± 7.8% | 83.1 ± 18%
UGCCUGAACAUGUAAACCAAA | 41.9 ± 6.7% | 49.4 ± 1.5% | 15.3 ± 0.85% | 66.1 ± 7.8%
UAGGGUCACAUGUAAACCAAA | 9.82 ± 2.6% | 30.8 ± 1.2% | 7.6 ± 0.27% | 8.98 ± 2.3%

Sequence | cell viability [1] | cell viability [2] | cell viability [3] | cell viability [4]
UCCGCUAACAUGUAAACCAAA | 90.2 ± 12% | 71.4 ± 12% | 88.9 ± 7.4% | 115 ± 26%
UUAUAGAACAUGUAAACCAAA | 76.4 ± 18% | 65.2 ± 4% | 76 ± 4.6% | 61.1 ± 7.5%
UUUCAACACAUGUAAACCAAA | 70.9 ± 7.6% | 49.9 ± 7.9% | 83.6 ± 7.2% | 68.71 ± 0.48%
UCCGAAUACAUGUAAACCAAA | 79.1 ± 18% | 80.5 ± 21% | 83.7 ± 8.4% | 95.9 ± 27%
UUAUCGGACAUGUAAACCAAA | 87.5 ± 17% | 89.6 ± 14% | 93.2 ± 3.6% | 48.3 ± 7%
UGUGCCUACAUGUAAACCAAA | 38.8 ± 5.2% | 58 ± 12% | 32.7 ± 4.5% | 48.2 ± 8%
UUCUAAGACAUGUAAACCAAA | 94.6 ± 16% | 74.5 ± 11% | 102 ± 7% | 96.4 ± 14%
UUCGCAGACAUGUAAACCAAA | 74.1 ± 6.3% | 75.9 ± 15% | 87.9 ± 14% | 91.3 ± 13%
UCAUGAAACAUGUAAACCAAA | 60.7 ± 12% | 59.7 ± 7.8% | 79.3 ± 4.6% | 85.5 ± 14%
UGGUCAGACAUGUAAACCAAA | 128 ± 18% | 43 ± 3.6% | 53.1 ± 19% | 87.6 ± 4.4%
UCUAGCGACAUGUAAACCAAA | 67.4 ± 17% | 53.5 ± 5.2% | 86.5 ± 3.9% | 92.3 ± 12%
UAAGGUAACAUGUAAACCAAA | 73.6 ± 8.4% | 70.3 ± 11% | 95.1 ± 15% | 89.9 ± 6.1%
UCGUCUAACAUGUAAACCAAA | 70.9 ± 6.8% | 91.5 ± 26% | 92.2 ± 7.7% | 96.4 ± 19%
UAGCGCUACAUGUAAACCAAA | 37 ± 8% | 55.9 ± 10% | 69.5 ± 4.6% | 88.9 ± 10%
UCUCAGUACAUGUAAACCAAA | 85.9 ± 13% | 40.4 ± 0.63% | 86.9 ± 8% | 105 ± 16%
UUGAAAGACAUGUAAACCAAA | 85.4 ± 22% | 68.9 ± 7.6% | 86 ± 8.3% | 93.9 ± 7.2%
UAACCACACAUGUAAACCAAA | 46.6 ± 6.5% | 72.8 ± 14% | 68 ± 1.4% | 74.5 ± 12%
UCGUUCCACAUGUAAACCAAA | 15.1 ± 2.2% | 31.2 ± 2.4% | 6 ± 0.91% | 39.3 ± 5.9%
UCCUGCUACAUGUAAACCAAA | 34.8 ± 6.8% | 59.8 ± 9.2% | 32.9 ± 4.7% | 38.3 ± 5.6%
UCAGCACACAUGUAAACCAAA | 23.8 ± 1.1% | 51.1 ± 1.9% | 74.6 ± 5.8% | 67.2 ± 21%

Sequence | cell viability [1] | cell viability [2] | cell viability [3] | cell viability [4]
UUCAUGGACAUGUAAACCAAA | 26.4 ± 3% | 41.3 ± 2.8% | 73.5 ± 10% | 66.8 ± 20%
UGUCUGUACAUGUAAACCAAA | 24.2 ± 1.9% | 37.7 ± 5% | 9.01 ± 2.4% | 30.1 ± 6.3%
UUAAGGGACAUGUAAACCAAA | 16.9 ± 3% | 55.8 ± 9.2% | 74.2 ± 5.4% | 35.2 ± 7.2%
UCUUCCUACAUGUAAACCAAA | 68.2 ± 7.7% | 52.6 ± 1.8% | 65.1 ± 0.98% | 81.4 ± 4.1%
UUAAGCGACAUGUAAACCAAA | 87.9 ± 10% | 91.7 ± 8.1% | 103 ± 4.3% | 95 ± 7.8%
UCUAAUGACAUGUAAACCAAA | 79 ± 19% | 67.3 ± 3.1% | 86.4 ± 8.8% | 93.3 ± 19%
UCGCGCAACAUGUAAACCAAA | 81.5 ± 13% | 93.4 ± 13% | 79 ± 1.8% | 96.7 ± 16%
UGGUCCUACAUGUAAACCAAA | 22.8 ± 4.8% | 21.7 ± 3.4% | 13.3 ± 1.7% | 38.6 ± 2.7%
UACGUAGACAUGUAAACCAAA | 60.6 ± 6.7% | 79.5 ± 13% | 83.9 ± 10% | 83.9 ± 14%
UCUUGCCACAUGUAAACCAAA | 16.4 ± 4.5% | 19.2 ± 2.1% | 15.8 ± 0.3% | 39.8 ± 9.2%
UCAAAAUACAUGUAAACCAAA | 68.5 ± 10% | 47.5 ± 4.5% | 83 ± 12% | 91.2 ± 14%
UCUCGCGACAUGUAAACCAAA | 73.1 ± 18% | 47.8 ± 6.4% | 84.9 ± 8.8% | 93.1 ± 20%
UCGGUGGACAUGUAAACCAAA | 24 ± 4.1% | 15.9 ± 3.4% | 7.23 ± 0.93% | 47.8 ± 4.8%
UUCCGUGACAUGUAAACCAAA | 62.8 ± 1.8% | 89 ± 3.3% | 87.1 ± 14% | 83.8 ± 15%
UCGUCCAACAUGUAAACCAAA | 48.1 ± 12% | 65 ± 4.1% | 33.5 ± 3.2% | 59.1 ± 11%
UGAAGGAACAUGUAAACCAAA | 36.6 ± 6% | 69.9 ± 5.6% | 68.3 ± 2.9% | 55 ± 7.1%
UAGAGCGACAUGUAAACCAAA | 79.2 ± 2.8% | 70.9 ± 12% | 90 ± 7.1% | 79.6 ± 1.4%
UGAUGCUACAUGUAAACCAAA | 9.65 ± 1.4% | 20.3 ± 0.36% | 3.65 ± 0.11% | 13.9 ± 3.8%
UUUGUGAACAUGUAAACCAAA | 57.9 ± 6.5% | 64.3 ± 11% | 87.2 ± 6.5% | 97.8 ± 12%
UAUAAAUACAUGUAAACCAAA | 88.8 ± 13% | 75.7 ± 5.3% | 98.8 ± 9.8% | 103 ± 20%

Reference: the supplement of paper PMC6206098
